Measured values: EP4563146A1 (IRBM S.P.A., priority 2023, dated 2025)
pIC50: −log10 of the molar value.

Molecular target: ZIKV NS2B-G4SG4-NS3 serine protease (Zika virus, UniProt A0A024B7W1, R1467A/R1531G)
Test: ZIKV protease inhibition assay
Assay type: biochemical
Details: not given

With CN(C)C[C@H]1CC[C@H]([n+]2cc([N-]C(=O)Nc3cc(NC(=O)[C@@H](F)c4ccccc4F)cc(C(F)(F)F)c3)on2)CC1 (single isomer, unassigned) [Example 243] as the compound, how does the pIC50 read?
Its pIC50 is > 7.00.

CN(C)C[C@H]1CC[C@H]([n+]2cc([N-]C(=O)Nc3cc(NC(=O)[C@H](F)c4ccccc4F)cc(C(F)(F)F)c3)on2)CC1 (single isomer, unassigned) [Example 271] was tested. Which pIC50 did it give?
Its pIC50 is > 7.00.

N[C@H]1C[C@H]([n+]2cc([N-]C(=O)Nc3cc(NC(=O)Cc4ccccc4)cc(C(F)(F)F)c3)on2)C1 [Example 26, (3-((1R,3R)-3-Aminocyclobutyl)-1,2,3-oxadiazol-3-ium-5-yl)((3-(2-phenylacetamido)-5-(trifluoromethyl)phenyl)carbamoyl)amide] was tested. Which pIC50 did it give?
Its pIC50 is 6.00 to 7.00.

With CN(C)[C@H]1C[C@H]([n+]2cc([N-]C(=O)Nc3cc(NC(=O)Cc4ccccc4)cc(C(F)(F)F)c3)on2)C1 [Example 55, (3-((1R3R)-3-(Dimethylamino)cyclobutyl)-1,2,3-oxadiazol-3-ium-5-yl)((3-(2-phenyl-acetamido)-5-(trifluoromethyl)phenyl)-carbamoyl)amide] as the compound, how does the pIC50 read?
Its pIC50 is 6.00 to 7.00.

NC[C@H]1CC[C@@H]([n+]2cc([N-]C(=O)Nc3cc(NC(=O)Cc4ccccc4)cc(C(F)(F)F)c3)on2)CC1 [Example 59, (3-((1S,4S)-4-(Aminomethyl)cyclohexyl)-1,2,3-oxadiazol-3-ium-5-yl)((3-(2-phenyl-acetamido)-5-(trifluoromethyl)phenyl)-carbamoyl)amide] was tested. Which pIC50 did it give?
Its pIC50 is > 7.00.

O=C(Cc1ccccc1)Nc1cc(NC(=O)[N-]c2c[n+]([C@H]3CC[C@@H](CN4C(=O)c5ccccc5C4=O)CC3)no2)cc(C(F)(F)F)c1 [Example 60, (3-((1S,4S)-4-((1,3-Dioxoisoindolin-2-yl)methyl)cyclohexyl)-1,2,3-oxadiazol-3-ium-5-yl)((3-(2-phenylacetamido)-5-(trifluoromethyl)-phenyl)carbamoyl)amide] was tested. Which pIC50 did it give?
Its pIC50 is 6.00 to 7.00.

With CN(C)C[C@H]1CC[C@@H]([n+]2cc([N-]C(=O)Nc3cc(NC(=O)Cc4ccccc4)cc(C(F)(F)F)c3)on2)CC1 [Example 61, (3-((1S,4S)- -4-((Dimethylamino)methyl)cyclohexyl)-1,2,3-oxadiazol-3-ium-5-yl)((3-(2-phenylacetamido)-5-(trifluoromethyl)phenyl)carbamoyl)amide] as the compound, how does the pIC50 read?
Its pIC50 is > 7.00.

How did the pIC50 turn out when CC(=O)NC[C@H]1CC[C@@H]([n+]2cc([N-]C(=O)Nc3cc(NC(=O)Cc4ccccc4)cc(C(F)(F)F)c3)on2)CC1 [Example 62, (3-((1S,4S)-4-(Acetamidomethyl)cyclohexyl)-1,2,3-oxadiazol-3-ium-5-yl)((3-(2-phenylacetamido)-5-(trifluoromethyl)phenyl)carbamoyl)amide] was run?
The pIC50 was > 7.00.

N[C@H]1CC[C@@H]([n+]2cc([N-]C(=O)Nc3cc(NC(=O)Cc4ccccc4)cc(C(F)(F)F)c3)on2)CC1 [Example 91, (3-((1S,4S)-4-Aminocyclohexyl)-1,2,3-oxadiazol-3-ium-5-yl)((3-(2-phenylacetamido)-5-(trifluoromethyl)phenyl)carbamoyl)amide] was tested. Which pIC50 did it give?
The pIC50 was 6.00 to 7.00.

N[C@H]1CC[C@H]([n+]2cc([N-]C(=O)Nc3cc(NC(=O)Cc4ccccc4)cc(C(F)(F)F)c3)on2)CC1 [Example 92, (3-((1R,4R)-4-Aminocyclohexyl)-1,2,3-oxadiazol-3-ium-5-yl)((3-(2-phenylacetamido)-5-(trifluoromethyl)phenyl)carbamoyl)amide] was tested. Which pIC50 did it give?
The pIC50 was > 7.00.

NC[C@H]1CC[C@H]([n+]2cc([N-]C(=O)Nc3cc(NC(=O)Cc4ccccc4)cc(C(F)(F)F)c3)on2)CC1 [Example 93, (3-((1R,4R)-4-(Aminomethyl)cyclohexyl)-1,2,3-oxadiazol-3-ium-5-yl)((3-(2-phenyl-acetamido)-5-(trifluoromethyl)phenyl)-carbamoyl)amide] was tested. Which pIC50 did it give?
The pIC50 was > 7.00.

How did the pIC50 turn out when CN(C)[C@H]1CC[C@@H]([n+]2cc([N-]C(=O)Nc3cc(NC(=O)Cc4ccccc4)cc(C(F)(F)F)c3)on2)CC1 [Example 95, (3-((1S,4S)-4-(Dimethylamino)cyclohexyl)-1,2,3-oxadiazol-3-ium-5-yl)((3-(2-phenylacetamido)-5-(trifluoromethyl)phenyl)-carbamoyl)amide] was run?
The pIC50 was 6.00 to 7.00.

How did the pIC50 turn out when CN(C)[C@H]1CC[C@H]([n+]2cc([N-]C(=O)Nc3cc(NC(=O)Cc4ccccc4)cc(C(F)(F)F)c3)on2)CC1 [Example 96, (3-((1R,4R)-4-(dimethylamino)cyclohexyl)-1,2,3-oxadiazol-3-ium-5-yl)((3-(2-phenylacetamido)-5-(trifluoromethyl)phenyl)-carbamoyl)amide] was run?
Its pIC50 is > 7.00.

How did the pIC50 turn out when NC[C@H]1CC[C@@H]([n+]2cc([N-]C(=O)Nc3cc(N4CCC(c5ccccc5)C4=O)cc(C(F)(F)F)c3)on2)CC1 (stereo partly drawn) [Example 119, (3-((1S,4S)-4-(Aminomethyl)cyclohexyl)-1,2,3-oxadiazol-3-ium-5-yl)((3-(2-oxo-3-phenylpyrrolidin-1-yl)-5-(trifluoromethyl)phenyl)-carbamoyl)amide] was run?
Its pIC50 is > 7.00.

How did the pIC50 turn out when N[C@H]1CC[C@@H](C[n+]2cc([N-]C(=O)Nc3cc(N4CCC(c5ccccc5)C4=O)cc(C(F)(F)F)c3)on2)CC1 (stereo partly drawn) [Example 131, (3-(((1S,4S)-4-Aminocyclohexyl)methyl)-1,2,3-oxadiazol-3-ium-5-yl)((3-(2-oxo-3-phenylpyrrolidin-1-yl)-5-(trifluoromethyl)-phenyl)carbamoyl)amide] was run?
The pIC50 was 6.00 to 7.00.

Same assay, conditions: read-out: Zika - NS3 protease; 1.25 nM enzyme, 10 µM Bz-Nle-KRR-AMC substrate, 25 °C

With COc1ncc(-c2ccc(C[n+]3cc([N-]C(=O)Nc4cc(NC(=O)CC5CCCCC5)cc(C(F)(F)F)c4)on3)cc2)c(C)n1 [Example 8] as the compound, how does the pIC50 read?
The pIC50 was > 7.00.

With COc1ncc(-c2ccc(C[n+]3cc([N-]C(=O)Nc4cc(NC(C)=O)cc(C(F)(F)F)c4)on3)cc2)c(C)n1 [Example 11] as the compound, how does the pIC50 read?
The pIC50 was > 7.00.

How did the pIC50 turn out when COc1ncc(-c2ccc(C[n+]3cc([N-]C(=O)Nc4cc(NC(=O)c5ccccc5)cc(C(F)(F)F)c4)on3)cc2)c(C)n1 [Example 15] was run?
The pIC50 was > 7.00.

How did the pIC50 turn out when COc1ncc(-c2ccc(C[n+]3cc([N-]C(=O)Nc4cc(NC(=O)Cc5ccc(Cl)cc5)cc(C(F)(F)F)c4)on3)cc2)c(C)n1 [Example 17] was run?
Its pIC50 is 6.00 to 7.00.

COc1ncc(-c2ccc(C[n+]3cc([N-]C(=O)Nc4cc(NC(=O)C5CCCC5)cc(C(F)(F)F)c4)on3)cc2)c(C)n1 [Example 18] was tested. Which pIC50 did it give?
Its pIC50 is > 7.00.

COc1ncc(-c2ccc(C[n+]3cc([N-]C(=O)Nc4cc(NC(=O)Cc5noc6ccccc56)cc(C(F)(F)F)c4)on3)cc2)c(C)n1 [Example 20] was tested. Which pIC50 did it give?
Its pIC50 is > 7.00.

COc1ncc(-c2ccc(C[n+]3cc([N-]C(=O)Nc4cc(NC(=O)Cc5ccc(CN)cc5)cc(C(F)(F)F)c4)on3)cc2)c(C)n1 [Example 22] was tested. Which pIC50 did it give?
Its pIC50 is > 7.00.

How did the pIC50 turn out when CC(C(=O)Nc1cc(NC(=O)[N-]c2c[n+](Cc3ccccn3)no2)cc(C(F)(F)F)c1)c1ccccc1 (centres unmarked) [Example 32] was run?
The pIC50 was > 7.00.

How did the pIC50 turn out when Cc1oc(-c2ccccc2)nc1CC(=O)Nc1cc(NC(=O)[N-]c2c[n+](Cc3ccccn3)no2)cc(C(F)(F)F)c1 [Example 33] was run?
The pIC50 was 4.70 to 6.00.

With O=C(Cc1c[nH]c2cccnc12)Nc1cc(NC(=O)[N-]c2c[n+](Cc3ccccn3)no2)cc(C(F)(F)F)c1 [Example 36] as the compound, how does the pIC50 read?
Its pIC50 is > 7.00.

N#Cc1ccc2nc(C(=O)Nc3cc(NC(=O)[N-]c4c[n+](Cc5ccccn5)no4)cc(C(F)(F)F)c3)cn2c1 [Example 37] was tested. Which pIC50 did it give?
The pIC50 was 6.00 to 7.00.

With CN1Cc2cc(C(=O)Nc3cc(NC(=O)[N-]c4c[n+](Cc5ccccn5)no4)cc(C(F)(F)F)c3)sc2C1 [Example 39] as the compound, how does the pIC50 read?
The pIC50 was 6.00 to 7.00.

With Cn1ccc(CC(=O)Nc2cc(NC(=O)[N-]c3c[n+](Cc4ccccn4)no3)cc(C(F)(F)F)c2)n1 [Example 40] as the compound, how does the pIC50 read?
The pIC50 was 4.70 to 6.00.

O=C(CS(=O)(=O)c1ccccc1)Nc1cc(NC(=O)[N-]c2c[n+](Cc3ccccn3)no2)cc(C(F)(F)F)c1 [Example 43] was tested. Which pIC50 did it give?
Its pIC50 is > 7.00.

How did the pIC50 turn out when O=C([N-]c1c[n+](Cc2ccccn2)no1)Nc1cc(NC(=O)C2CC2c2ccccc2)cc(C(F)(F)F)c1 (centres unmarked) [Example 50] was run?
The pIC50 was > 7.00.

With O=C([N-]c1c[n+](Cc2ccccn2)no1)Nc1cc(NC(=O)c2cc3n(n2)CCS(=O)(=O)C3)cc(C(F)(F)F)c1 [Example 64] as the compound, how does the pIC50 read?
Its pIC50 is 6.00 to 7.00.

How did the pIC50 turn out when O=C([N-]c1c[n+](Cc2ccccn2)no1)Nc1cc(NC(=O)C23CCC(O)(CC2)C3)cc(C(F)(F)F)c1 [Example 66] was run?
The pIC50 was 6.00 to 7.00.

Cc1cccc2c1OCC2C(=O)Nc1cc(NC(=O)[N-]c2c[n+](Cc3ccccn3)no2)cc(C(F)(F)F)c1 (centres unmarked) [Example 67] was tested. Which pIC50 did it give?
The pIC50 was 4.70 to 6.00.

How did the pIC50 turn out when O=C([N-]c1c[n+](Cc2ccccn2)no1)Nc1cc(NC(=O)[C@H]2C[C@](O)(c3ccccn3)C2)cc(C(F)(F)F)c1 [Example 69] was run?
Its pIC50 is 6.00 to 7.00.

N#Cc1ccn(C2(C(=O)Nc3cc(NC(=O)[N-]c4c[n+](Cc5ccccn5)no4)cc(C(F)(F)F)c3)CC2)n1 [Example 71] was tested. Which pIC50 did it give?
Its pIC50 is 6.00 to 7.00.

How did the pIC50 turn out when O=C(CCOC1CCCC1)Nc1cc(NC(=O)[N-]c2c[n+](Cc3ccccn3)no2)cc(C(F)(F)F)c1 [Example 73] was run?
The pIC50 was 6.00 to 7.00.

How did the pIC50 turn out when O=C([N-]c1c[n+](Cc2ccccn2)no1)Nc1cc(NC(=O)C(F)(F)CN2CCCC2)cc(C(F)(F)F)c1 [Example 76] was run?
Its pIC50 is 6.00 to 7.00.

With O=C([N-]c1c[n+](Cc2ccccn2)no1)Nc1cc(NC(=O)C2CN(C3CC3)C2)cc(C(F)(F)F)c1 [Example 77] as the compound, how does the pIC50 read?
Its pIC50 is 6.00 to 7.00.

How did the pIC50 turn out when O=C([N-]c1c[n+](Cc2ccccn2)no1)Nc1cc(NC(=O)c2ccc3c(n2)CCO3)cc(C(F)(F)F)c1 [Example 79] was run?
Its pIC50 is 6.00 to 7.00.

O=C([N-]c1c[n+](Cc2ccccn2)no1)Nc1cc(NC(=O)C2(Oc3ccc(Cl)cc3)COC2)cc(C(F)(F)F)c1 [Example 83] was tested. Which pIC50 did it give?
The pIC50 was 4.70 to 6.00.

How did the pIC50 turn out when O=C([N-]c1c[n+](Cc2ccccn2)no1)Nc1cc(NC(=O)C2CCCC3(CCOC3)O2)cc(C(F)(F)F)c1 (centres unmarked) [Example 84] was run?
The pIC50 was 6.00 to 7.00.

With O=C([N-]c1c[n+](Cc2ccccn2)no1)Nc1cc(NC(=O)C2CS(=O)(=O)CCO2)cc(C(F)(F)F)c1 (centres unmarked) [Example 88] as the compound, how does the pIC50 read?
The pIC50 was 4.70 to 6.00.

O=C(Cc1ccccc1)Nc1cc(NC(=O)[N-]c2c[n+](CC3CCNCC3)no2)cc(C(F)(F)F)c1 [Example 120] was tested. Which pIC50 did it give?
The pIC50 was > 7.00.

How did the pIC50 turn out when CN1CCCCC1C[n+]1cc([N-]C(=O)Nc2cc(NC(=O)Cc3ccccc3)cc(C3CC3)c2)on1 (centres unmarked) [Example 127] was run?
The pIC50 was > 7.00.
